The text below walks through data of the antibiotic and cytotoxicity screens of Wong et al. (2023).

One test deals with HSkMC. The test can be described thus: cytotoxicity call (relative viability < 0.9). The note with it: 10 µM.
For the next test, the system named is HepG2. The test can be described thus: cytotoxicity call (relative viability < 0.9). The conditions noted are these: 10 µM.
The next test deals with S. aureus RN4220. Put plainly: growth inhibition call (relative growth <= 0.2). The note with it: 50 µM.

The other results are listed elsewhere or left out.

On to `CCOC(=O)[C@@H]1[C@H](Cc2ccccc2)[C@H]2c3cc(OC)c(OC)cc3CCN2C(=O)N1c1ccc(OC)cc1`, for which the cytotoxicity call in the test on HSkMC and in the test on HepG2 was “inactive” throughout. In the test on S. aureus RN4220, the growth inhibition call was “inactive”.

On to `O=c1cc(-c2ccccc2)oc2cc(O)c(O)c(O)c12`, for which the cytotoxicity call with HSkMC and in the test with HepG2 was “inactive” in each case. Further, in the test with S. aureus RN4220, the growth inhibition call was “inactive”.

Turning to `Cc1noc(C)c1NC(=O)Nc1ccc2c(c1)C(=O)N([C@H](C)CO)C[C@@H](C)[C@H](CN(C)S(=O)(=O)c1cn(C)cn1)O2`, the cytotoxicity call in the test with HSkMC and with HepG2 was “inactive” each time. In addition, the growth inhibition call with S. aureus RN4220 was “inactive”.

`CCOC(=O)N1c2ccc(C(F)(F)F)cc2[C@@H](N(Cc2cc(C(F)(F)F)cc(C(F)(F)F)c2)C(=O)OC)C[C@H]1CC`: the cytotoxicity call in the test with HSkMC and in the test on HepG2 was “inactive” each time. Besides, in the test with S. aureus RN4220, the growth inhibition call is “inactive”.

In the case of `C[C@H]1CN([C@@H](C)CO)C(=O)c2cccc(NS(=O)(=O)c3ccc(Cl)cc3)c2O[C@@H]1CN(C)Cc1ccc(Oc2ccccc2)cc1`, the cytotoxicity call in the test with HSkMC was “inactive”. Besides, the cytotoxicity call with HepG2 is “active”. For the same compound, the growth inhibition call in the test on S. aureus RN4220 was “inactive”.

With `CC(C)C1=CC2=CC[C@H]3[C@](C)(CO)CCC[C@]3(C)[C@@H]2CC1`, the cytotoxicity call in the test on HSkMC and in the test on HepG2 was “inactive” each time. For the same compound, the growth inhibition call in the test with S. aureus RN4220 was “inactive”.

For the compound `C[C@@H]1CN([C@H](C)CO)C(=O)c2cccc(NC(=O)C3CCOCC3)c2O[C@H]1CN(C)C(=O)NC1CCCCC1`, the cytotoxicity call in the test with HSkMC and in the test on HepG2 was “inactive” in each case. Also, the growth inhibition call in the test with S. aureus RN4220 is “inactive”.

Consider `CO[C@@H]1CN(C)C(=O)c2cc(NC(=O)C3CC3)ccc2OC[C@H](C)N(C(=O)Cc2ccccn2)C[C@@H]1C`, for which the cytotoxicity call in the test on HSkMC and in the test with HepG2 was “inactive” in each case. Further, the growth inhibition call with S. aureus RN4220 is “inactive”.

On to `Cc1occc(=O)c1O`, for which the cytotoxicity call in the test on HSkMC and with HepG2 was “inactive” throughout. For the same compound, in the test with S. aureus RN4220, the growth inhibition call is “inactive”.

Take `Cc1ccc(S(=O)(=O)N(C)C[C@@H]2Oc3ccc(NS(=O)(=O)c4cccs4)cc3C(=O)N([C@H](C)CO)C[C@H]2C)cc1`: the cytotoxicity call in the test on HSkMC and with HepG2 was “inactive” throughout. In addition, in the test on S. aureus RN4220, the growth inhibition call is “inactive”.

For the compound `C[C@@H]1CN([C@H](C)CO)C(=O)c2cc(NC(=O)Cc3ccccc3)ccc2O[C@@H](C)CCCCO[C@@H]1CN(C)C(=O)C1CCCCC1`, the cytotoxicity call in the test with HSkMC and in the test with HepG2 was “inactive” each time. The growth inhibition call in the test on S. aureus RN4220 is “inactive”.

Consider `C[C@@H]1CN([C@H](C)CO)C(=O)c2cc(NS(=O)(=O)c3cn(C)cn3)ccc2O[C@@H](C)CCCCO[C@@H]1CN(C)C(=O)c1ccncc1`, for which the cytotoxicity call with HSkMC and in the test with HepG2 was “inactive” throughout. For the same compound, the growth inhibition call with S. aureus RN4220 was “inactive”.

Take `COc1ccc(CN(C)C[C@@H]2OCCCC[C@H](C)Oc3ccc(NC(=O)Nc4ccccc4)cc3C(=O)N([C@@H](C)CO)C[C@@H]2C)cc1`: the cytotoxicity call with HSkMC and in the test on HepG2 was “inactive” throughout. Also, the growth inhibition call in the test with S. aureus RN4220 was “inactive”.

As to `CC(C)NC(=O)Nc1ccc2c(c1)C(=O)N([C@@H](C)CO)C[C@@H](C)[C@@H](CN(C)Cc1ccccc1)OCCCC[C@H](C)O2`, the cytotoxicity call in the test on HSkMC and in the test with HepG2 was “inactive” in each case. Besides, the growth inhibition call in the test on S. aureus RN4220 was “inactive”.

On to `O=C(O)CCCCCCC(=O)Nc1ccc([C@@H]2O[C@@H](CSCCO)C[C@H](c3ccccc3)O2)cc1`, for which the cytotoxicity call with HSkMC and with HepG2 was “inactive” throughout. Further, the growth inhibition call with S. aureus RN4220 is “inactive”.

Take `CC(C)NC(=O)Nc1ccc2c(c1)C(=O)N([C@H](C)CO)C[C@@H](C)[C@H](CN(C)C(=O)Nc1ccc(C(F)(F)F)cc1)OCCCC[C@@H](C)O2`: the cytotoxicity call in the test on HSkMC and with HepG2 was “inactive” each time. Further, the growth inhibition call with S. aureus RN4220 is “inactive”.

`C[C@@H]1CCCCO[C@@H](CN(C)C(=O)Cc2ccccc2)[C@H](C)CN([C@@H](C)CO)C(=O)c2cc(NC(=O)c3ccccc3)ccc2O1`: the cytotoxicity call in the test on HSkMC and in the test with HepG2 was “inactive” each time. For the same compound, the growth inhibition call in the test on S. aureus RN4220 is “inactive”.

On to `C[C@@H]1COC(=O)[C@@H](NC(=O)OCC2c3ccccc3-c3ccccc32)CC=CC[C@H](CC(=O)NCCO)C(=O)N1`, for which the cytotoxicity call with HSkMC and with HepG2 was “inactive” each time. For the same compound, the growth inhibition call in the test on S. aureus RN4220 is “inactive”.

Turning to `C[C@H]1CN([C@@H](C)CO)C(=O)Cc2cc(NS(=O)(=O)c3ccc(F)cc3)ccc2O[C@H]1CN(C)Cc1ccc(Cl)c(Cl)c1`, the cytotoxicity call in the test on HSkMC is “inactive”. In the test on HepG2, the cytotoxicity call is “active”. Also, the growth inhibition call in the test with S. aureus RN4220 was “inactive”.

For `C[C@@H]1CN([C@H](C)CO)C(=O)c2cc(NC(=O)Cc3cn(C)c4ccccc34)ccc2O[C@@H]1CN(C)S(=O)(=O)c1cn(C)cn1`, the cytotoxicity call in the test on HSkMC and with HepG2 was “inactive” throughout. For the same compound, the growth inhibition call with S. aureus RN4220 was “inactive”.

Take `C[C@@H]1CN([C@@H](C)CO)C(=O)c2cc(NC(=O)Cc3ccccc3)ccc2O[C@H]1CN(C)S(C)(=O)=O`: the cytotoxicity call in the test with HSkMC and in the test on HepG2 was “inactive” in each case. Besides, the growth inhibition call in the test on S. aureus RN4220 is “inactive”.

Regarding `COCCOC(=O)N1C(=O)[C@@]2(c3cc(C#CCNC(N)=O)ccc31)[C@H](c1ccccc1OCCO)N1[C@H](c3ccccc3)[C@H](c3ccccc3)OC(=O)[C@H]1[C@@H]2C(N)=O`, the cytotoxicity call in the test on HSkMC and in the test on HepG2 was “inactive” throughout. Besides, in the test on S. aureus RN4220, the growth inhibition call is “inactive”.

In the case of `C[C@H]1CN([C@@H](C)CO)C(=O)Cc2cc(NS(=O)(=O)c3cn(C)cn3)ccc2O[C@H]1CN(C)S(=O)(=O)c1ccc(Cl)cc1`, the cytotoxicity call in the test on HSkMC (human skeletal muscle cells) and with HepG2 was “inactive” in each case. For the same compound, in the test on S. aureus RN4220, the growth inhibition call is “inactive”.

Take `Cc1ccc(S(=O)(=O)N(C)C[C@H]2OCCCC[C@H](C)Oc3ccc(NC(=O)Nc4ccc(F)cc4)cc3C(=O)N([C@H](C)CO)C[C@H]2C)cc1`: the cytotoxicity call in the test with HSkMC and with HepG2 was “inactive” each time. Moreover, the growth inhibition call in the test with S. aureus RN4220 was “inactive”.

For `C[C@@H]1CN([C@H](C)CO)C(=O)c2cccc(NC(=O)c3ccc(-c4nccs4)cc3)c2O[C@H]1CN(C)Cc1ccc(-c2ccccc2)cc1`, the cytotoxicity call with HSkMC and in the test with HepG2 was “inactive” throughout. Moreover, in the test on S. aureus RN4220, the growth inhibition call was “inactive”.

As for `COCCN1CCC(N(Cc2ccc(-c3ccc(C(F)(F)F)cc3)cc2)C(=O)Cn2c(SCc3cccc(F)c3F)cc(=O)c3ccccc32)CC1`, the cytotoxicity call in the test with HSkMC and in the test with HepG2 was “active” in each case. For the same compound, the growth inhibition call with S. aureus RN4220 is “inactive”.
